Measured values taken from US7517667B2, “Methods for promoting, inhibiting and detecting toxin entry into cells” (Boston Medical Center Corporation, priority 2003, dated 2009).

Target: T1, β-COP (Homo sapiens, UniProt P53618)
T1 construct: endogenous in cells; host or cells: Hut102/6TG cell lysate (β-COP); the bait GST-DT140-271 was made in E. coli BL-21(DE-3)
T1 sequence (P53618 1-953): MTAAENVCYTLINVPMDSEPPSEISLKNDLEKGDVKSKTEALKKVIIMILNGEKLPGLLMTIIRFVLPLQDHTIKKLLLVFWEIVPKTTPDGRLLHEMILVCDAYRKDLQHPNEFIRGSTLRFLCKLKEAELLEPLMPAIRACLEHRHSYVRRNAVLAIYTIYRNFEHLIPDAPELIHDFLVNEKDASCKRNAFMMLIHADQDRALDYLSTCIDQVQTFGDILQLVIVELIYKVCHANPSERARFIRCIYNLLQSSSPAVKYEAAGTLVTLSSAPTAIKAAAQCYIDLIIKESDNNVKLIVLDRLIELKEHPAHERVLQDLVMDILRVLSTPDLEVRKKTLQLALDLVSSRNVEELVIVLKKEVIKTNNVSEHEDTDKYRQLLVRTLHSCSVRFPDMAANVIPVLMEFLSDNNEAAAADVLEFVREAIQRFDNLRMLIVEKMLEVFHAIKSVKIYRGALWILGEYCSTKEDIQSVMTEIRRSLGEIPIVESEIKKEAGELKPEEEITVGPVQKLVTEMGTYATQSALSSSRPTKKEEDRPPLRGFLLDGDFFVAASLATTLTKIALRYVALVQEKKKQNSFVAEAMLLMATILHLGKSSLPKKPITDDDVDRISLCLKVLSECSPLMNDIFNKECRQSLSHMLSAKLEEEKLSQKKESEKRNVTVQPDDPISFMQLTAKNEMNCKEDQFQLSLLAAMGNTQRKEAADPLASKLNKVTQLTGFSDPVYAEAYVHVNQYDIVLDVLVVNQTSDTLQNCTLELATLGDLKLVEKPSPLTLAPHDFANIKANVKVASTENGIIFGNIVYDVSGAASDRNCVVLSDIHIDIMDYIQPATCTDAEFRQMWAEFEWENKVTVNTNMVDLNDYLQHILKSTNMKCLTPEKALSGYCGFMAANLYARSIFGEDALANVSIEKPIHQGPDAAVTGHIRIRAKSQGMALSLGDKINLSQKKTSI

| Sequence | inhibition of the interaction between β-COP and GST-DT140-271 (pull down, anti-β-COP immunoblot) |
| --- | --- |
| RDKTKTKIESLKEHGPIKNS [T1 peptide] | inhibits this interaction in a dose dependent manner |
| AENSDKHRIMQVFHRTLNQ [2,335 molecular weight peptide used as negative control in GST-DT140-271 pull down experiments] | failed to block the pull down of β-COP |
